The list shows a part of the results. No stated cut-off is given here; in the data, active = 3.2 or more and inactive = the rest. Most of these values are background signal.
Legend:
Experiment in all cases: enrichment score (SH2-bound / input frequency) (ratio); bacterial display of known human phosphotyrosine sites (pTyr-Var adds point mutants) read by sequencing; higher = stronger binding; tyrosines were phosphorylated by kinases first
Details in all cases: peptide library: pTyr-Var
SHP2 C-SH2 domain E139D = molecular target: SHP2 C-SH2 domain E139D
[1] = molecular target: SHP2 C-SH2 domain wild-type
SHP2 N-SH2 domain L43F = molecular target: SHP2 N-SH2 domain L43F
SHP2 N-SH2 domain T42A = molecular target: SHP2 N-SH2 domain T42A
SHP2 N-SH2 domain T52S = molecular target: SHP2 N-SH2 domain T52S
[2] = molecular target: SHP2 N-SH2 domain wild-type
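Further: displayed peptides selected on beads carrying the immobilized SH2 domain, with library peptides lacking any tyrosine serving as negative controls.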

Row | Binder | enrichment score (SHP2 C-SH2 domain E139D) | enrichment score [1] | enrichment score (SHP2 N-SH2 domain L43F) | enrichment score (SHP2 N-SH2 domain T42A) | enrichment score (SHP2 N-SH2 domain T52S) | enrichment score [2]
1 | AFAEVYEGQVS [ALK_Y1131_G1128A] | inactive: 0.697 | inactive: 0.968 | inactive: 0.936 | inactive: 0.645 | inactive: 0.804 | inactive: 1.04
2 | MARDIYRASYY [ALK_Y1278] | inactive: 0.9 | inactive: 0.695 | inactive: 0.802 | inactive: 0.669 | inactive: 0.848 | inactive: 0.882
3 | MTRDIYRASYY [ALK_Y1278_A1274T] | inactive: 0.777 | inactive: 0.829 | inactive: 0.835 | inactive: 0.796 | inactive: 0.699 | inactive: 0.974
4 | MALDIYRASFF [ALK_Y1278_R1275L_YF] | inactive: 1.74 | inactive: 1.5 | inactive: 1.6 | inactive: 1.52 | inactive: 1.53 | inactive: 1.57
5 | YRASYYRKGGC [ALK_Y1283] | inactive: 0.288 | inactive: 0.315 | inactive: 0.346 | inactive: 0.328 | inactive: 0.336 | inactive: 0.287
6 | PGAGHYEDTIL [ALK_Y1604] | inactive: 0.411 | inactive: 0.5 | inactive: 0.662 | inactive: 0.537 | inactive: 0.626 | inactive: 0.63
7 | HGAGHYEDTIL [ALK_Y1604_P1599H] | inactive: 0.828 | inactive: 1.25 | inactive: 1.09 | inactive: 0.735 | inactive: 0.945 | inactive: 1.18
8 | IYLADYRIMEG [ALOX12B_Y318] | inactive: 1.79 | inactive: 1.59 | inactive: 1.51 | inactive: 1.59 | inactive: 1.62 | inactive: 1.71
9 | MKDLTYSSLCF [ALOX5_Y446_A447S] | inactive: 1.01 | inactive: 1.08 | inactive: 1.56 | inactive: 1.22 | inactive: 1.27 | inactive: 1.63
10 | LIQRNYKLTAQ [ALPK2_Y1975_A1978T] | inactive: 0.7 | inactive: 0.797 | inactive: 0.759 | inactive: 0.799 | inactive: 0.528 | inactive: 0.709
11 | HTLQLYRCREE [ALPK3_Y342] | inactive: 0.488 | inactive: 0.516 | inactive: 0.275 | inactive: 0.296 | inactive: 0.225 | inactive: 0.235
12 | GTATAYLCGVK [ALPL_Y117] | inactive: 0.705 | inactive: 1.11 | inactive: 0.752 | inactive: 0.907 | inactive: 0.687 | inactive: 1.31
13 | GTGTAYLCGVK [ALPL_Y117_A114G] | inactive: 1.13 | inactive: 0.89 | inactive: 0.768 | inactive: 0.82 | inactive: 0.634 | inactive: 1.03
14 | HYPDVYAREQL [ALX3_Y181] | inactive: 0.93 | inactive: 0.721 | inactive: 0.734 | inactive: 0.94 | inactive: 0.863 | inactive: 0.865
15 | SRDTRYLVLAV [AMH_Y195] | inactive: 1.9 | inactive: 2.47 | active: 3.21 | active: 6.25 | active: 3.2 | inactive: 2.18
16 | VLVSQYEKLNA [AMZ2_Y26] | inactive: 0.791 | inactive: 0.859 | inactive: 0.664 | inactive: 0.767 | inactive: 1.01 | inactive: 1.14
17 | NQKGKYFNVER [ANAPC4_Y469_R465Q] | inactive: 0.803 | inactive: 0.897 | inactive: 0.756 | inactive: 0.62 | inactive: 0.755 | inactive: 0.62
18 | FLTQHYDAKPQ [ANG_Y38] | inactive: 1.03 | inactive: 0.84 | inactive: 1.02 | inactive: 0.801 | inactive: 0.853 | inactive: 0.982
19 | NLNGKYYKPRA [ANGPTL3_Y417_N418Y] | inactive: 1.36 | inactive: 1.23 | inactive: 1.11 | inactive: 1.18 | inactive: 1.02 | inactive: 1.19

Row | Binder | enrichment score (SHP2 C-SH2 domain E139D) | enrichment score [1] | enrichment score (SHP2 N-SH2 domain L43F) | enrichment score (SHP2 N-SH2 domain T42A) | enrichment score (SHP2 N-SH2 domain T52S) | enrichment score [2]
20 | HISGVYKLPPD [ANGPTL7_Y145_R140H] | inactive: 1.01 | inactive: 1.09 | inactive: 0.951 | inactive: 0.718 | inactive: 0.967 | inactive: 1.1
21 | RLCQDYDIIGP [ANK1_Y1073_T1075I] | inactive: 0.667 | inactive: 0.842 | inactive: 0.649 | inactive: 1.01 | inactive: 0.737 | inactive: 0.828
22 | ITLPIYTKESE [ANK2_Y1455] | inactive: 1.15 | inactive: 1.12 | inactive: 1.18 | inactive: 1.05 | inactive: 1.25 | inactive: 1.16
23 | KIIRWYVSSEG [ANK2_Y3907_R3906W] | inactive: 2.27 | inactive: 2.3 | inactive: 1.99 | inactive: 2.18 | inactive: 2.19 | inactive: 2.04
24 | RARPPYTVAAD [ANKZF1_Y572] | inactive: 0.904 | inactive: 0.883 | inactive: 0.698 | inactive: 0.616 | inactive: 0.884 | inactive: 0.936
25 | IEPVIYVVQRR [ANOS1_Y217] | inactive: 0.251 | inactive: 0.318 | inactive: 0.319 | inactive: 0.208 | inactive: 0.213 | inactive: 0.27
26 | IEPVIDVVQRR [ANOS1_Y217_Y217D] | inactive: 0.396 | inactive: 0.515 | inactive: 0.532 | inactive: 0.555 | inactive: 0.542 | inactive: 0.531
27 | RPSRWYQFPVA [ANOS1_Y259_R262P] | inactive: 2.94 | inactive: 2.4 | inactive: 3.18 | inactive: 2.82 | inactive: 3.02 | inactive: 2.25
28 | RQQQDYWLIDV [ANPEP_Y600] | inactive: 0.922 | inactive: 0.913 | inactive: 1.12 | inactive: 1.01 | inactive: 1.27 | inactive: 0.843
29 | RQQQDYWLKDV [ANPEP_Y600_I603K] | inactive: 0.969 | inactive: 0.376 | inactive: 0.743 | inactive: 0.472 | inactive: 0.603 | inactive: 0.529
30 | TVDASYYGGRG [ANTXR2_Y380] | inactive: 0.475 | inactive: 0.856 | inactive: 0.649 | inactive: 0.569 | inactive: 0.597 | inactive: 0.592
31 | VDASYCGGRGV [ANTXR2_Y381_Y381C] | inactive: 0.646 | inactive: 2.12 | inactive: 2.77 | inactive: 2.2 | inactive: 2.76 | inactive: 2.62
32 | VDASFCGGRGV [ANTXR2_Y381_Y381C_YF] | inactive: 0.726 | inactive: 0.878 | inactive: 0.776 | inactive: 0.653 | inactive: 0.623 | inactive: 0.867
33 | DRPSEYAARQL [ANXA13_Y90] | inactive: 0.468 | inactive: 0.636 | inactive: 0.444 | inactive: 0.449 | inactive: 0.499 | inactive: 0.788
34 | DHPSEYAARQL [ANXA13_Y90_R86H] | inactive: 0.622 | inactive: 0.441 | inactive: 0.471 | inactive: 0.402 | inactive: 0.508 | inactive: 0.552
35 | GTVRDYPDFSP [ANXA3_Y15] | inactive: 0.662 | inactive: 0.601 | inactive: 0.822 | inactive: 0.634 | inactive: 0.62 | inactive: 0.874
36 | LTFDEYRNISQ [ANXA3_Y216] | inactive: 1.46 | inactive: 0.932 | inactive: 0.951 | inactive: 0.732 | inactive: 1.1 | inactive: 1.24
37 | LTFDEYRNNSQ [ANXA3_Y216_I219N] | inactive: 0.694 | inactive: 0.944 | inactive: 0.742 | inactive: 0.865 | inactive: 0.935 | inactive: 1.07

Source: the supplement of paper PMC10369915
